Laboratory results from PubChem BioAssay AID1508624 (National Center for Advancing Translational Sciences (NCATS), 2021).
Among all 48,000 compounds or so, about 120 (0.25%) were called active. Inconclusive results (about 4%) are left out. Calls come from the whole dose curve; as a rule, active = well fitted activation curve with a large enough effect; inconclusive = small, poorly fitted or top-dose-only effect, or another doubt; inactive = no such curve, though single readings can be large or run the other way. The list shows a part of the results.

Test: Primary qHTS for Identification of Small Molecule Activators of Huntingtin-Antisense Promoter Activity; note: nearly all actives have a fitted effect of over 55% in size
Conditions: HEK293 HTT-AS promoter firefly luciferase reporter, 24 h; series mostly up to 57.5 µM; activity change, positive = activation: at the top concentration
Procedure, shortened: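 Firefly luciferase readout (Dual-Glo, 10 min RT) after 24 h, 37 °C compound exposure (final up to 57.5 uM) of HEK293 reporter cells cultured 24 h beforehand; PTC124 at 50 uM final as control inhibitor; activity scaled vehicle 0%, zero RLU -100%.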

Compound | activity change, positive = activation
Cc1c(C(=O)NCc2ccccc2Cl)sc2nc(-c3ccc(F)cc3)cn12 | inactive: -0.334%
O=C(NCc1ccc(F)cc1)c1cc(Sc2ccc(F)cc2F)nc2ccccc12 | inactive: -21%
CCOC(=O)CN(Cc1ccccc1)C(C(=O)NC1CCCCC1)c1ccc(C)cc1 (stereo unspecified) | inactive: -24.2%
CCOC(=O)C1CCN(C(=O)Cn2c(-c3cccs3)cc3cc(Cl)ccc32)CC1 | inactive: -30.3%
CCOc1ccccc1CNS(=O)(=O)c1ccc2c(c1)C(C)(C)C(=O)N2C | inactive: -29.9%
CNc1nc(Nc2ccc(C(=O)N3CCOCC3)cc2OC)ncc1Cl | inactive: -8.87%
COc1ccc(-c2oc3cc(OC)ccc3c2C(=O)c2ccc(C#N)cc2)cc1 | inactive: -32.6%
COc1ccc(N2C(=O)CSC23C(=O)N(Cc2ccccc2F)c2ccccc23)cc1Cl (stereo unspecified) | inactive: -37.7%
O=S(=O)(NCc1ccccc1Cl)c1ccc(-c2cnc(C3CC3)o2)cc1 | inactive: -34.3%
Cc1c(CC(=O)N2CCCCC2)c(=O)oc2cc3occ(C(C)(C)C)c3cc12 | inactive: -6.93%
COc1ccc(-c2cn3cccnc3n2)cc1NC(=O)COc1ccccc1 | inactive: -3.86%
CCC1=Nc2cc(C(=O)NCc3ccccc3OC)ccc2Sc2ccc(Cl)cc21 | inactive: -14.6%
COCCNc1ncnc2c1cnn2-c1cc(Cl)ccc1C | inactive: 1.96%
Cn1nc(C(=O)NCc2cccc(Cl)c2)c2c1-c1ccccc1SC2 | inactive: -3.37%
CN1CCN(C(c2ccc(Cl)cc2Cl)c2sc3nc(-c4ccco4)nn3c2O)CC1 (stereo unspecified) | inactive: 2.85%
Cc1ccc(S(=O)(=O)C2(C(=O)Nc3ccc(C)c(Cl)c3)CC2)cc1 | inactive: -19.4%
CCC(=O)N1c2ccccc2CC1C(=O)NCCc1ccccc1Cl (stereo unspecified) | inactive: -5.49%
Cc1ccc(OCC(=O)Nc2ccc(OCc3cc(=O)n4ccsc4n3)cc2)cc1 | inactive: 3.04%
COC(=O)c1cc(NC(=O)[C@H](CCS(C)(=O)=O)N2Cc3ccccc3C2=O)cc(C(=O)OC)c1 | inactive: -18.5%
CCc1ccc(-c2nc3cc(NC(=O)c4cc5ccccc5cc4OC)ccc3o2)cc1 | inactive: -7.18%
COc1ccc(Br)c(C(=O)Nc2cc3c(cc2N2CCCCC2)n(C)c(=O)c(=O)n3C)c1 | inactive: -20.6%
CCc1cc(C(=O)NC(C)c2ccccc2)no1 (stereo unspecified) | inactive: 4.04% [at 11.5 µM, percent change from vehicle, -100% = no light]
COc1cc2c(cc1OC)C(COc1ccc(F)cc1)N(C(=O)c1ccc(S(=O)(=O)N3CCCC3)cc1)CC2 (stereo unspecified) | inactive: -12.4%
COc1cc(C2CC(=O)N(Cc3ccc(F)cc3)c3ccccc3S2)cc(OC)c1OC (stereo unspecified) | inactive: -62.1%
O=C(CCCn1c(=O)c2ccccc2n(Cc2ccc(F)cc2Cl)c1=O)NCCc1ccc(Cl)cc1 | inactive: -10.1%
COC(=O)c1ccccc1NC(=O)c1nc(S(=O)(=O)Cc2cccc(C)c2)ncc1Cl | inactive: 0.0775%
